The other results are listed elsewhere or left out. At the low end of the ranking the order means little.
The sequences below were run against SIX1 homeodomain (reference allele) (UniProt Q15475) (assay: universal protein binding microarray). Conditions: Universal all-10-mer PBM (8x60K, AMADID 030236), 300 nM GST-tagged protein, Alexa Fluor 488 anti-GST; buffer, salt, pH and temperature not stated; high values mean tight binding; most listed sequences are background and not binding sites; double strand, one strand shown.

Sequence	binding signal [E-score]
ACCCCGAG	0.235
CTAACTAA	-0.138
ATGCGTCC	-0.147
ACGGGTAC	0.0571
ACCCAACG	-0.158
ATCCCCAC	0.347
ATCTCATG	0.197
GCTTGAAA	-0.23
ATAGTAGG	0.107
CTGTGAAG	-0.0497
CCGCACGC	-0.127
ATAGCATC	0.158
CGGCATCC	0.127
AGACCTTC	-0.0709
GGTTTGAC	-0.0831
AGAACCTC	-0.18
AAGTTGAC	-0.166
CGCCTCTA	-0.0629
AAGGTGTG	0.145
CCCGGCCC	0.0915
GGCTCATA	0.161
CGGAAAAA	-0.213
GGTGCGAC	-0.148
CCTAGAGC	-0.159
ATCGCGAT	0.334

Sequence	binding signal [E-score]
CACGATCC	0.342
CGCATGGC	0.0215
GGTCTAGA	0.0895
CAACACGG	0.135
ACACAGCT	-0.139
CCGGTTCA	0.0726
CCTAGTGC	-0.141
AGTACGAG	0.0399
GATTGAGA	0.151
GAGAGGGC	-0.094
CTGTTTGC	-0.124
ACGTTCGC	-0.265
ATAAGAAT	-0.0363
GTCAACGA	-0.152
CGTACGCC	-0.192
ACGCGCAT	0.0842
GGGCCTCA	-0.353
ATTTAAGA	-0.138
AGATCATA	0.323
ATGTCTGG	-0.00231
CGCCCTCA	-0.136
AACAACAT	-0.322
AATTACTA	-0.137
CCCTCGGC	-0.0499
AGTCCATA	-0.0497

Sequence	binding signal [E-score]
AAGCGCTT	-0.108
AATGATCT	0.369
CTAGCCTC	-0.124
AAGTTACT	-0.142
AAACTCCT	-0.138
ACGCACGC	-0.0812
CAATTTCA	-0.0969
CGCGTTTC	-5e-06
CAACCAAC	-0.19
GTTTCCAA	-0.245
AATAGGTC	-0.00413
AACGGAAT	-0.112
AAATAGCC	-0.118
AAACACGC	-0.142
CAAACCGC	-0.228
ACACTTCA	-0.128
GGACATAC	0.0292
ACGCGTTA	-0.224
AGCCCCGA	0.0188
AACAACAG	-0.199
CAACAAAC	0.0227
AACCTCCG	0.0149
AACTATAT	0.0676
TCTCCCAA	-0.0329
CTCAGTCA	-0.112

Sequence	binding signal [E-score]
CACCGGAG	0.0409
CCCTTCAA	-0.107
CTCTCAAG	-0.0422
AAACTCAA	-0.186
CAGCTAGC	-0.0759
CACATACA	0.0196
AGGAGCCT	-0.152
CCCAAACC	0.0007
ACAAACTC	-0.234
ACTGATTA	-0.0201
ATGATGTA	0.0132
CTACGGCC	-0.0906
TCTGGGCA	-0.109
GTTAAATA	-0.179
GGGTGTAA	0.334
ACGCGCTA	-0.0409
ACTTGCGC	0.036
CGATACCC	0.492
CGACCCAC	-0.0513
AAGGGGCT	0.0934
GTCCTCTA	-0.261
GCAAGGGC	-0.273
ATGAAATA	-0.15
AGGAGTTC	-0.212
CTGCGTGA	-0.0341

Sequence	binding signal [E-score]
ACCGTCCA	-0.0239
ACGTTGTA	-0.219
GACCGGGA	0.0448
GGTTCTGA	-0.144
GGTTAATA	0.169
ATACCCGG	0.407
AGATGAAC	-0.0911
GGATATTA	0.355
GAAATACA	-0.0828
AGGCTGCG	-0.161
GAGCGACC	-0.317
AACCTGAG	-0.103
CGCGGCGA	0.0491
GAACAGTC	-0.0176
CTCTAAAG	-0.166
ACACTCAC	0.0868
GCGCCACC	-0.242
AAGAGTAG	-0.055
ACTCGCTA	0.05
AAGTCGGA	0.0614
ATGCGGGC	0.0159
GTAATTAC	-0.0546
ATCTAGGC	0.0735
GATACCCC	0.496
ATTGCAGA	-0.0738

Sequence	binding signal [E-score]
CTCGCGAG	0.0426
GAATGAGC	-0.0707
CTTCATCA	-0.149
GCGTCCGA	-0.0112
AATTGGCA	-0.105
GACGTCCA	-0.218
GATGATGA	0.189
TAAATTCA	-0.164
GCGTCTTA	-0.0701
AGCGGCCG	-0.272
CGATATCA	0.444
AGACGCAA	-0.109
CATGCAAG	0.0687
CCATCCCG	0.104
CATGCATA	0.018
GCGCTCTA	-0.248
GAAAGCAA	-0.0624
CTTCTCAA	0.0658
AGGTCGTC	-0.154
AAGTCTGG	-0.313
CCTTTTAA	-0.103
CCTGCTGC	-0.232
ATTCAGTG	-0.0117
CGGTCAAG	-0.0835
AAGCACAT	-0.101

Sequence	binding signal [E-score]
TGTACTAA	-0.174
ATCATAAG	0.286
CGCTACTC	0.0352
CCTATCAG	0.326
CAGATCCA	0.329
GAGATGCA	0.00553
TAGCGCAA	-0.000455
CGCGAAAC	-0.184
CCCCATTC	-0.152
AAACCGGA	0.0389
AAATAGAG	-0.17
ATGTCTTG	-0.124
ACTGACTC	-0.184
ATCCTTCA	0.205
GGATAACC	0.297
ACTATCCT	0.318
AATCAGCT	-0.0149
CCCCGCGG	0.0847
ACAGTCAT	-0.0242
CTCGTTGC	-0.0403
AGAAGTGG	-0.0191
AAGACAAC	-0.161
CATACGTC	-0.0661
TAGAGTGA	0.0353
CAGAGTCC	-0.102

Sequence	binding signal [E-score]
ACCGGATA	0.364
ATCCGGAG	0.299
ACCTTAGG	-0.0982
CACGGCCC	-0.159
ACGACTGA	-0.136
AGCAGGTC	-0.0922
AAGCGCTG	-0.267
ATTAATAC	0.352
CTGGATCA	0.326
TGGTCCAA	-0.19
GTCCTTTA	-0.251
GTCCGAAA	-0.235
GACTCAGC	-0.214
GATCGTGC	0.276
CAAGACTG	-0.226
GCGCCCCC	-0.199
GAGAATAC	0.29
ACAGCCGA	-0.0274
AGATGATC	0.38
CCTGCCCA	0.107
CTCCGCAA	-0.204
GATGTCCC	-0.193
AGGAGTAA	-0.0223
TACTGGCA	-0.0507
TATTACGA	0.12

Sequence	binding signal [E-score]
ATTCATTC	0.0773
CGCTTTGA	0.0363
AAGGAAAG	-0.0824
CACGCCGG	0.097
ATGATAAC	0.0455
GTCTGGTA	0.151
AATAAGCA	0.0365
CATTCACG	-0.174
CGCTTGCA	-0.0725
CCCATGGA	0.0358
GGAGTGTA	0.00041
GGCGGTAC	0.0303
CGACGCCA	-0.206
CATAGCTC	-0.054
AACAGCCT	-0.226
CTCGGGAA	0.0596
AGCACCGC	0.0565
CACGTAGC	-0.237
ATTTTTTG	-0.152
CGAACGAA	-0.251
AGCCAATC	0.0187
TTATATAA	0.179
GCGACTCA	-0.141
CCACAAGC	-0.138
GACGCGGA	-0.0663

Sequence	binding signal [E-score]
GTACCAAA	-0.00468
CTACCCAC	-0.0272
ATGAATAC	0.284
CCTACCCC	0.0956
AAGTACCC	-0.00666
ATTGCGAC	-0.00247
ATCTCACA	0.293
ATATACGG	0.305
AGTTGGTG	0.191
AAGCGCGT	-0.216
GATACACA	0.354
CTGCGCAG	-0.142
AGAATATG	0.114
AGTCAGGC	-0.207
CAGACCCA	-0.09
CTCACGAC	-0.000585
CCCCACCG	0.16
CGACAGGC	-0.135
CGTTCGCC	-0.0726
ACAGGTTC	-0.127
AGGTTTGG	-0.1
ATAGATAA	0.094
GATCCTAC	0.32
TGCGTCAA	-0.175
ATTAAGTG	0.125

Sequence	binding signal [E-score]
GACTCCAC	-0.182
CCCCCATA	0.0281
ACGCGAGT	0.0259
ACCCTAGG	-0.0347
CGCGCGCC	-0.0836
AACTGCTT	-0.201
CCTTAGAC	-0.123
CACTGCAA	-0.106
CCAAAAAC	0.0713
TATGTAGA	0.0544
TAGTAACA	-0.132
AAAAAACG	-0.233
CAACAACG	-0.126
AAGAAGCG	-0.326
ATCAACAG	0.209
GCGCGTCA	-0.197
AGCACACA	-0.263
ACGCTGAA	-0.234
CTAGTATC	0.388
ATAGATTA	0.135
CTTCCAAC	-0.153
AACTTGAG	-0.232
AATAGCAA	0.0467
ACCTGTAC	0.00589
GGAGCGAA	-0.292

Sequence	binding signal [E-score]
ACGAAAAA	-0.395
CAAACAAG	-0.215
GCTTCTAC	0.0506
CCGAGTCC	-0.0881
AACATGCT	-0.181
GAATGGTC	-0.243
ACTGTGGA	0.0576
AATCCAAA	-0.0987
AGGTCCCA	-0.0797
GTCGGAAA	-0.0118
CACTCGCC	-0.00599
ATTGTTCC	0.0234
CTTGGTCA	-0.0119
GGTCCACC	-0.0994
GCTCCCGA	0.00864
ACCGAAAG	-0.218
GACGTGCC	-0.158
GGCGAGAC	0.0633
CCACACCA	0.15
CACGAACA	-0.00191
ATCACAGG	0.129
CTTTAACA	-0.188
AGGGTGGG	-0.0353
AGACTTAG	-0.187
ACAGGATC	0.283

Sequence	binding signal [E-score]
ATTGATGC	0.182
AATGATTC	-0.0641
CGGTCAAA	-0.24
ATATTCCA	0.222
CAACTGGC	-0.135
AATAACCC	0.12
GACTTAGC	-0.227
CAAGCCTG	-0.111
AGTGCACT	-0.192
AACGCGAT	0.0903
GGGGAACA	-0.211
CTCCGCCC	-0.0707
CGTTGAAG	-0.204
CGTTAGCA	-0.0784
ATGGCATG	-0.0599
ACTCATCA	-0.0444
CGCTTCCA	-0.173
ATGGAAAA	-0.0285
GGTCGCGA	0.114
GGGTCGCA	-0.0849
TGGTCAAA	-0.257
AGGGGTCC	-0.221
AAACGTCA	-0.233
AGATCACC	0.317
CATGAACA	-0.0859

Sequence	binding signal [E-score]
AGGCCGCG	-0.241
CTTACCAC	-0.0585
AATGTTGT	-0.176
TACGGATA	0.401
ACCAGTCA	-0.1
GCCCGAGA	0.0429
AACTAGTG	-0.116
GAAGGGCC	0.0186
GAAACCAA	0.052
CGCGACAA	-0.119
ATAGAAGG	0.0424
TCCAGGCA	-0.00829
CACACACA	-0.102
GTCGATGA	0.0348
AAGCCCAT	-0.0752
AAGTCGCC	-0.298
AAGTTGTG	-0.225
CTAACGAG	0.144
ATTACAGA	0.137

From PMC10668032
